Assay results as given in the supplement of paper PMC4967469.
Lines with a small IC50 respond at low doses; a limit (>, <) means that the fit lies beyond the doses tested. For AUC the same curve is integrated over the 256-fold range of doses and scaled to a fraction; the more sensitive the line, the further below 1. For some of these results: A top dose marked as inferred was derived from the fitted curves, not read from the paper. For some of these results: Drugs with an entry number were screened twice under separate entries, and the two screens often disagree.

Tests used:
Experiment in all cases: Viability of human cancer cell lines after 72 h of drug (GDSC screen)
Nilotinib = compound: Cc1cn(-c2cc(NC(=O)c3ccc(C)c(Nc4nccc(-c5cccnc5)n4)c3)cc(C(F)(F)F)c2)cn1 [Nilotinib]; settings: top dose 2 µM
Protocol: (§1)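 Human cancer cell lines in 384-well plates, medium with 10% serum, drug for 72 h over a 256-fold dose range (nine 2-fold or five 4-fold steps up to the top dose). Adherent lines were fixed and stained with the nucleic acid dye Syto60, suspension lines read with resazurin; signal relative to control wells, capped at 0 and 100%. One two-parameter sigmoid per drug and line, fitted in a mixed model over all curves with the slope shared within a line.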

AUY922 = compound: CCNC(=O)c1noc(-c2cc(C(C)C)c(O)cc2O)c1-c1ccc(CN2CCOCC2)cc1 [AUY922]; settings: top dose 0.256 µM; top dose inferred
Protocol: as §1

T0901317 = compound: O=S(=O)(c1ccccc1)N(CC(F)(F)F)c1ccc(C(O)(C(F)(F)F)C(F)(F)F)cc1 [T0901317]; settings: top dose 10.24 µM; top dose inferred
Protocol: as §1

KIN001-270 = compound: Cc1ccc(Nc2cc(-c3cccc(N4C(=O)c5ccccc5C4=O)c3)ncn2)cc1NS(C)(=O)=O [KIN001-270]; settings: top dose 20 µM; top dose inferred
Protocol: as §1

GNF-2 = compound: NC(=O)c1cccc(-c2cc(Nc3ccc(OC(F)(F)F)cc3)ncn2)c1 [GNF-2]; settings: top dose 1.28 µM; top dose inferred
Protocol: as §1

MP470 = compound: S=C(NCc1ccc2c(c1)OCO2)N1CCN(c2ncnc3c2oc2ccccc23)CC1 [MP470]; settings: top dose 20 µM; top dose inferred
Protocol: as §1

Gemcitabine = compound: Nc1ccn([C@@H]2O[C@H](CO)[C@@H](O)C2(F)F)c(=O)n1 [Gemcitabine]; settings: top dose 1.024 µM
Protocol: as §1

Bicalutamide = compound: CC(O)(CS(=O)(=O)c1ccc(F)cc1)C(=O)Nc1ccc(C#N)c(C(F)(F)F)c1 [Bicalutamide]; settings: top dose inferred
Protocol: as §1

LFM-A13 = compound: C/C(O)=C(\C#N)C(=O)Nc1cc(Br)ccc1Br [LFM-A13]; settings: top dose 16 µM; top dose inferred
Protocol: as §1

TW-37 = compound: CC(C)c1ccccc1Cc1cc(C(=O)Nc2ccc(S(=O)(=O)c3ccccc3C(C)(C)C)cc2)c(O)c(O)c1O [TW-37]; settings: top dose 5 µM
Protocol: as §1

[1] = top dose 1.024 µM, screen: GDSC drug entry 150
[2] = top dose 10 µM, screen: GDSC drug entry 1502

Cell Line | AUC (Nilotinib) | IC50 (Nilotinib) | AUC (AUY922) | IC50 (AUY922) | AUC (T0901317) | IC50 (T0901317) | AUC (KIN001-270) | IC50 (KIN001-270) | AUC (GNF-2) | IC50 (GNF-2) | AUC (MP470) | IC50 (MP470) | AUC (Gemcitabine) | IC50 (Gemcitabine) | AUC (Bicalutamide; [1]) | IC50 (Bicalutamide; [1]) | AUC (Bicalutamide; [2]) | IC50 (Bicalutamide; [2]) | AUC (LFM-A13) | IC50 (LFM-A13) | AUC (TW-37) | IC50 (TW-37)
C2BBe1 (large intestine, adherent) | 0.955 | > 2 µM | 0.626 | 0.0374 µM | 0.986 | > 10.2 µM | 0.962 | > 20 µM | 0.976 | > 1.28 µM | 0.945 | > 20 µM | 0.829 | 0.76 µM | 0.983 | > 1.02 µM | 0.984 | > 10 µM | 0.98 | > 16 µM | 0.507 | 0.327 µM
CA46 (Burkitt lymphoma, suspension) | 0.985 | > 2 µM | 0.625 | 0.0364 µM | 0.962 | > 10.2 µM | 0.898 | > 20 µM | 0.97 | > 1.28 µM | 0.916 | > 20 µM | 0.75 | 0.358 µM | 0.984 | > 1.02 µM | 0.963 | > 10 µM | 0.961 | > 16 µM | 0.842 | 3.88 µM
CAS-1 (glioma, adherent) | 0.981 | > 2 µM | 0.733 | 0.0963 µM | 0.982 | > 10.2 µM | 0.981 | > 20 µM | 0.973 | > 1.28 µM | 0.867 | > 20 µM | 0.771 | 0.54 µM | 0.971 | > 1.02 µM | 0.967 | > 10 µM | 0.974 | > 16 µM | 0.765 | 2.5 µM
CCRF-CEM (lymphoblastic leukaemia, suspension) | 0.922 | > 2 µM | 0.509 | 0.0169 µM | 0.953 | > 10.2 µM | 0.979 | > 20 µM | 0.989 | > 1.28 µM | 0.947 | > 20 µM | 0.291 | 0.0185 µM | 0.989 | > 1.02 µM | 0.989 | > 10 µM | 0.96 | > 16 µM | 0.405 | 0.18 µM
CESS (acute myeloid leukaemia, suspension) | 0.991 | > 2 µM | 0.552 | 0.0217 µM | 0.92 | > 10.2 µM | 0.987 | > 20 µM | 0.991 | > 1.28 µM | 0.899 | 19 µM | 0.323 | 0.0223 µM | 0.989 | > 1.02 µM | 0.988 | > 10 µM | 0.965 | > 16 µM | 0.562 | 0.449 µM
CGTH-W-1 (thyroid, adherent) | 0.611 | 0.252 µM | 0.585 | 0.0272 µM | 0.986 | > 10.2 µM | 0.978 | > 20 µM | 0.976 | > 1.28 µM | 0.851 | 15.2 µM | 0.182 | 0.00718 µM | 0.986 | > 1.02 µM |  |  | 0.969 | > 16 µM | 0.505 | 0.323 µM
CHP-126 (neuroblastoma, suspension) | 0.987 | > 2 µM | 0.713 | 0.0653 µM | 0.963 | > 10.2 µM | 0.983 | > 20 µM | 0.987 | > 1.28 µM | 0.876 | > 20 µM | 0.392 | 0.032 µM | 0.982 | > 1.02 µM | 0.986 | > 10 µM | 0.941 | > 16 µM | 0.575 | 0.503 µM
CL-11 (large intestine, adherent) | 0.954 | > 2 µM | 0.948 | > 0.256 µM | 0.971 | > 10.2 µM | 0.984 | > 20 µM | 0.987 | > 1.28 µM | 0.892 | > 20 µM | 0.969 | > 1.02 µM | 0.983 | > 1.02 µM | 0.969 | > 10 µM | 0.987 | > 16 µM | 0.86 | > 5 µM
CMK (acute myeloid leukaemia, suspension) | 0.991 | > 2 µM | 0.33 | 0.00584 µM | 0.89 | 8.64 µM | 0.918 | > 20 µM | 0.983 | > 1.28 µM | 0.932 | > 20 µM | 0.118 | 0.00515 µM | 0.991 | > 1.02 µM | 0.978 | > 10 µM | 0.99 | > 16 µM | 0.681 | 0.914 µM
COLO-320-HSR (large intestine, suspension) | 0.979 | > 2 µM | 0.659 | 0.0414 µM | 0.962 | > 10.2 µM | 0.957 | > 20 µM | 0.986 | > 1.28 µM | 0.94 | > 20 µM | 0.468 | 0.0531 µM | 0.988 | > 1.02 µM | 0.985 | > 10 µM | 0.988 | > 16 µM | 0.517 | 0.345 µM
COLO-668 (small cell lung carcinoma, adherent) | 0.937 | > 2 µM | 0.624 | 0.0351 µM | 0.971 | > 10.2 µM | 0.989 | > 20 µM | 0.989 | > 1.28 µM | 0.828 | 12.3 µM | 0.288 | 0.0161 µM | 0.985 | > 1.02 µM | 0.988 | > 10 µM | 0.983 | > 16 µM | 0.807 | 2.56 µM
COLO-684 (endometrium, suspension) | 0.982 | > 2 µM | 0.659 | 0.0468 µM | 0.942 | > 10.2 µM | 0.948 | > 20 µM | 0.974 | > 1.28 µM | 0.914 | > 20 µM | 0.418 | 0.037 µM | 0.981 | > 1.02 µM | 0.983 | > 10 µM | 0.973 | > 16 µM | 0.429 | 0.195 µM
